Hit rate of the full screen: of about 310,000 compounds, about 14,000 (4.5%) showed an effect of 50% or more. Effects have a minus sign here. The list shows a part of the results.
molecular target: human ether-à-go-go-related gene (hERG) potassium channel (human, UniProt Q12809); assay: primary screen, population patch clamp on CHO cells stably expressing hERG
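Note: peak tail current of the secondary pulse compared with the same well before compound.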

Chain of human ether-à-go-go-related gene (hERG) potassium channel (Q12809 whole entry, looked up): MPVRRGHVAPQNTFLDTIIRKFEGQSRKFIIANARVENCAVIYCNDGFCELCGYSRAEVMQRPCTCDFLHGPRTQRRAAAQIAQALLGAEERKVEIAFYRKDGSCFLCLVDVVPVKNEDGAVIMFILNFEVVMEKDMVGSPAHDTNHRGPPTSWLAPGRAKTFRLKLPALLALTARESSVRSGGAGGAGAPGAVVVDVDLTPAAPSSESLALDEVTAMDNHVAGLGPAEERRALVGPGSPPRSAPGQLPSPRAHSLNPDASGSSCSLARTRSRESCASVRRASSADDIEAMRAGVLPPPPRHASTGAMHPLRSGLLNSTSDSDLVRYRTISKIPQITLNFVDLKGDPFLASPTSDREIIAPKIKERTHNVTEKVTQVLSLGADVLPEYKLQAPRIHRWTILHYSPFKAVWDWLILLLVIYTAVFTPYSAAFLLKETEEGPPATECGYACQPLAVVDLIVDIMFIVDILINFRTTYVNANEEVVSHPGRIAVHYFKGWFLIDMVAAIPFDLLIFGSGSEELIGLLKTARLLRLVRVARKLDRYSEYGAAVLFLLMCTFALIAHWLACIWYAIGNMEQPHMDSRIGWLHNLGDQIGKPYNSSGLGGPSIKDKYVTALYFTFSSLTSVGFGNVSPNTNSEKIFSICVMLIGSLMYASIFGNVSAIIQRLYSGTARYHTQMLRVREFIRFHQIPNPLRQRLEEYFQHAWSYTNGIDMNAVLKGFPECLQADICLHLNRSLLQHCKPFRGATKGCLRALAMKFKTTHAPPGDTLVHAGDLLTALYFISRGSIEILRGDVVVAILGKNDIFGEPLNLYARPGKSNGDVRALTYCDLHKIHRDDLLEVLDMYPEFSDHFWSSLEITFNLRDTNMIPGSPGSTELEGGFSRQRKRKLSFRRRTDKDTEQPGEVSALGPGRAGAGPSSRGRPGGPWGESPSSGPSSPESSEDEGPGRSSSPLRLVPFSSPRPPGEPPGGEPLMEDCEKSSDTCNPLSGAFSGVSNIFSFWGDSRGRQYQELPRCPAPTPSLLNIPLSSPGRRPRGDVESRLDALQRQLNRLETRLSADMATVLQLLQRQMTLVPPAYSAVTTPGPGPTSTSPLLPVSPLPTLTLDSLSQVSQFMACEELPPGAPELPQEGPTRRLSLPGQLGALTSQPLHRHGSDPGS

Compared with `O=C(NCc1ccccc1)c1cccc(S(=O)(=O)N2CCCCC2)c1`, `O=C(CCS(=O)(=O)Cc1ccccc1F)N1CCc2ccccc2C1` is higher in “hERG current change (%, negative = inhibition) at 10uM” value: -52.5% for the first, 3.01% for the second.

Going from `CCOc1ccccc1CN1CCN(C2CCC2)CC1CCO` (stereo not shown) to `CC(C)c1csc(CN2CCC(n3nccc3NC(=O)Cc3ccccc3)CC2)n1`, the “hERG current change (%, negative = inhibition) at 10uM” value falls from 27.4% to -0.822%.

Going from `O=C1Nc2ccc(S(=O)(=O)NCCCO)c3cccc1c23` to `Cc1cccc(NS(=O)(=O)c2ccc3oc(=O)ccc3c2)c1C`, the “hERG current change (%, negative = inhibition) at 10uM” value falls from 17.7% to 16.7%.

Going from `CN(C)C(=O)c1ccc(NC(=O)c2cccnc2)cc1` to `COc1ccc(C(=O)Nc2ccc(S(=O)(=O)NC(C)=O)cc2)cc1`, the “hERG current change (%, negative = inhibition) at 10uM” value falls from 9.88% to 7.67%.

Going from `CC(=O)CSc1nc2c(c(=O)[nH]c(=O)n2C)n1CCCc1ccccc1` to `CC(C)CCN(C(=O)c1ccc(Br)cc1)c1c(N)n(Cc2ccccc2)c(=O)[nH]c1=O`, the “hERG current change (%, negative = inhibition) at 10uM” value rises from -38.3% to -3.91%.

Going from `COc1ccc(C2(C#N)CCC(=O)N2c2ccccc2)cc1` (stereo not shown) to `COc1ccc(S(=O)(=O)O/N=C2\CCCc3ccccc32)cc1`, the “hERG current change (%, negative = inhibition) at 10uM” value falls from 5.87% to -2.62%.

Going from `N#CCC(=O)N/N=C\c1cc(Br)ccc1OC/C=C/c1ccccc1` to `COc1ccc(NC(=O)/C=C/c2ccccc2[N+](=O)[O-])c(OC)c1`, the “hERG current change (%, negative = inhibition) at 10uM” value falls from 14.8% to 4.66%.

Compared with `COc1ccc(-n2nc(C(=O)Nc3ccc4c(c3)OCO4)c3ccccc3c2=O)cc1`, `Cc1ccc(NC(=O)Nc2ccc3c(c2)OCO3)c(Br)c1` is higher in “hERG current change (%, negative = inhibition) at 10uM” value: 7.44% for the first, 27.9% for the second.

First: CSCCC(NS(=O)(=O)c1ccc(F)cc1)C(=O)NCc1ccc(S(N)(=O)=O)cc1 (stereo not shown)
Second: CC(NC(=O)CN(c1cccc(C(F)(F)F)c1)S(=O)(=O)c1ccc(Cl)c([N+](=O)[O-])c1)c1ccccc1 (stereo not shown)
The “hERG current change (%, negative = inhibition) at 10uM” value of the first is lower: 9.36% for the first, 21.2% for the second.

Compared with `C=C(C)c1cccc(C(C)(C)NC(=O)NC2CC(C)(C)NC(C)(C)C2)c1`, `Cc1ccc2c(c1)NC(c1cccs1)C1=C(CC(C)(C)CC1=O)N2` (stereo not shown) is lower in “hERG current change (%, negative = inhibition) at 10uM” value: 9.77% for the first, 9.63% for the second.

Compared with `COC(=O)c1[nH]c2ccc(Cl)cc2c1NC(=O)CCN1CCOCC1`, `O=C(OCC(=O)N1CCOCC1)c1ccc(N2CCOCC2)c([N+](=O)[O-])c1` is higher in “hERG current change (%, negative = inhibition) at 10uM” value: 2.71% for the first, 19.9% for the second.

Going from `CCN(CC1CCCO1)C(=O)c1cc(COc2ccc(OC)cc2Cl)on1` (stereo not shown) to `COc1ccc(NC(=O)c2cn(C)c(=O)c3cc(OC)c(OC)cc23)c(OC)c1`, the “hERG current change (%, negative = inhibition) at 10uM” value rises from -5.59% to 14.2%.

First: CC1(c2ccc(Cl)cc2Cl)NC(=O)N(CC(=O)N2CCN(C(=O)c3ccco3)CC2)C1=O (stereo not shown)
Second: O=C(CSc1nnnn1-c1cccc(Cl)c1)Nc1ccc2c(c1)CCC2
The “hERG current change (%, negative = inhibition) at 10uM” value of the first is lower: -29.1% for the first, 7.44% for the second.

Going from `Cc1cccc(-n2c(O)c(C=Nc3ccccc3)c3ccccc3c2=O)n1` to `CNC(=O)CCn1nc(-c2ccccc2)c2ccccc2c1=O`, the “hERG current change (%, negative = inhibition) at 10uM” value rises from -22.2% to 10.4%.

Compared with `CCN(c1ccc(NC(=O)CCc2nc3sc4c(c3c(=O)[nH]2)CCCC4)cc1)C(C)C`, `Cc1ccc(N(CC(=O)Nc2cccc(Cl)c2C)S(C)(=O)=O)cc1` is higher in “hERG current change (%, negative = inhibition) at 10uM” value: 4.14% for the first, 4.17% for the second.

Going from `C/C(=N\NC(=O)c1ccccn1)C12CC3CC(CC(C3)C1)C2` to `NC(=O)COc1ccc(C23CC4CC(CC(C4)C2)C3)cc1`, the “hERG current change (%, negative = inhibition) at 10uM” value falls from 14% to 7.2%.

First: O=C(O)CC(C(=O)O)N1C(=O)/C(=C/c2ccc(-c3nc4ccccc4s3)o2)SC1=S (stereo not shown)
Second: CC(C)COc1ccc(C(=O)N2C(=O)c3ccc(N)cc3C2=O)cc1
The “hERG current change (%, negative = inhibition) at 10uM” value of the first is lower: -4.46% for the first, 4.32% for the second.

Compared with `COc1ccccc1-c1cc(-c2cc(Cl)ccc2O)n[nH]1`, `Cc1cccc(C(=O)O/N=C/c2c(N3CCOCC3)n(C)c3ccccc23)c1` is lower in “hERG current change (%, negative = inhibition) at 10uM” value: 18.8% for the first, -25.6% for the second.

Going from `CCC(C)N1CC(C(=O)O)CC1=O` (stereo not shown) to `CC(NC(=O)CN(C)S(=O)(=O)c1cnc[nH]1)c1ccccc1` (stereo not shown), the “hERG current change (%, negative = inhibition) at 10uM” value falls from 6.45% to -0.281%.

Compared with `CN(CCC#N)c1ccc(/C=C(\C#N)c2ccccn2)cc1`, `O=C(CN(Cc1ccco1)C(=O)CCC(=O)Nc1ccccn1)NCc1ccccc1` is higher in “hERG current change (%, negative = inhibition) at 10uM” value: -4.79% for the first, -2.38% for the second.

Going from `O=Cc1cnc(N2CCCCC2)s1` to `C[C@@H]1NC(=O)N(CCCn2ccnc2)C1=O`, the “hERG current change (%, negative = inhibition) at 10uM” value falls from 28% to 7.61%.

In the case of `CCOC(=O)Cc1csc(NS(=O)(=O)Cc2ccccc2)n1`, the “hERG current change (%, negative = inhibition) at 10uM” value is reported as 3.54%.

Reference: publication PMC4336329 (PLoS ONE, 2015)
